One molecule from US20110091467A1 (CENTRE FOR ADDICTION AND MENTAL HEALTH, published 2011) can be followed below.

This assay has as its target T1, dopamine D2 receptor from solubilized rat striatal tissue (rat, UniProt P61169 1-444).
T1 construct: mature; Endogenous protein in a detergent extract of rat striatum, detected by Western blot with anti-D2; also called D2 receptors
Kind of assay: GST affinity purification (pull-down), Western blot for D2 receptor. (In western blotting, separated proteins are transferred to a membrane and probed.)

T1 sequence (P61169 whole entry): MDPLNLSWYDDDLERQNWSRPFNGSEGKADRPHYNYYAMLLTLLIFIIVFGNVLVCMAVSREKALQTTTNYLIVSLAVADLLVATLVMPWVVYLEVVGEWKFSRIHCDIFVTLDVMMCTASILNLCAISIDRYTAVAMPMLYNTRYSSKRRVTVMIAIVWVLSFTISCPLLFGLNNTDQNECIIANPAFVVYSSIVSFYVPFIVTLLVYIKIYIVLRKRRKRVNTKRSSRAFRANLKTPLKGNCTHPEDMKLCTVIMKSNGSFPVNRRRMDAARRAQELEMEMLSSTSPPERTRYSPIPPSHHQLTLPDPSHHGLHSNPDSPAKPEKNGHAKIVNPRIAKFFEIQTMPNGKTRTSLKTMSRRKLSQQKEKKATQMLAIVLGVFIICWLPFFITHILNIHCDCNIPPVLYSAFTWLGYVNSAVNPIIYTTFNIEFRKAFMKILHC

B1: GST alone (other)
chain: not shown
Turning to B1, the binding result was “no binding”.
